Experimental data reported in the supplement of paper PMC12217912.
This is one part of the list. Sequences were assembled here from the parent chain. Inactive controls read about 0.05.

B1: TEV protease; numbered along this chain (parent)
chain: MGESLFKGPRDYNPISSSICHLTNESDGHTTSLYGIGFGPFIITNKHLFRRNNGTLVVQSLHGVFKVKDTTTLQQHLVDGRDMIIIRMPKDFPPFPQKLKFREPQREERICLVTTNFQTKSMSSMVSDTSCTFPSGDGIFWKHWIQTKDGQCGSPLVSTRDGFIVGIHSASNFTNTNNYFTSVPKNFMELLTNQEAQQWVSGWRLNADSVLWGGHKVFMVKPEEPFQPVKEATQL

Variants of: B1
Test: raw area under fraction-flipped curve 0-4 h after induction (AUC4h, not background-subtracted), DNA-recorder readout of cleavage of the substrate (dimensionless); higher = more cleavage of the substrate by the protease variant
Details: temperature: 34 °C; time window: 0-4 h after rhamnose induction
Experimental: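 In vivo DNA recorder in E. coli TOP10(DE3) ΔrhaA at 34 °C. Each TEVp single-site mutant (parent TEVp 0) is paired with a single-site variant of the 7-mer TEVs (canonical ENLYFQ|S). The substrate sits between flexible linkers in a Bxb1-sfGFP-TEVs-SsrA fusion, so cleavage stabilises Bxb1 and speeds flipping of a recombination array, read by NGS. The value is the raw area under the fraction-flipped curve over 0-4 h after rhamnose induction (AUC4h), with ≥20 reads per time point. It is not background-subtracted; inactive controls average about 0.047.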
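Further: Bxb1 expression induced with 0.2% (w/v) L-rhamnose at OD600 near 0.5, cultures sampled hourly, flipped fraction per protease–substrate barcode pair counted by paired-end Illumina sequencing.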

Variant	area with substrate ENLYFAS	area with substrate ENLYFCS	area with substrate ENLYFDS	area with substrate ENLYFES	area with substrate ENLYFFS	area with substrate ENLYFHS	area with substrate ENLYFIS	area with substrate ENLYFKS	area with substrate ENLYFLS	area with substrate ENLYFMS	area with substrate ENLYFNS	area with substrate ENLYFPS	area with substrate ENLYFSS	area with substrate ENLYFTS	area with substrate ENLYFGS	area with substrate ENLYFRS	area with substrate ENLYFVS	area with substrate ENLYFWS	area with substrate ENLYFYS
MGESLFKGPRDYNPISSSICHLTNESDGHTTSLYGIGFGPFIITNKHLFRRNNGTLVVQSLHGVFLVKDTTTLQQHLVDGRDMIIIRMPKDFPPFPQKLKFREPQREERICLVTTNFQTKSMSSMVSDTSCTFPSGDGIFWKHWIQTKDGQCGSPLVSTRDGFIVGIHSASNFTNTNNYFTSVPKNFMELLTNQEAQQWVSGWRLNADSVLWGGHKVFMVKPEEPFQPVKEATQL [K66L]	0.0389	0.0353	0.0653	0.0643	0.0747	0.0649	0.0599	0.0626	0.0564	0.0684	0.0672	0.0604	0.0539	0.0567					
MGESLFKGPRDYNPISSSICHLTNESDGHTTSLYGIGFGPFIITNKHLFRRNNGTLVVQSLHGVFKVKETTTLQQHLVDGRDMIIIRMPKDFPPFPQKLKFREPQREERICLVTTNFQTKSMSSMVSDTSCTFPSGDGIFWKHWIQTKDGQCGSPLVSTRDGFIVGIHSASNFTNTNNYFTSVPKNFMELLTNQEAQQWVSGWRLNADSVLWGGHKVFMVKPEEPFQPVKEATQL [D69E]	0.0566	0.0609	0.0571	0.073	0.0787		0.0661	0.0608	0.0528	0.0626	0.0687	0.0442	0.0541	0.0575	0.0736	0.0481	0.0569	0.0588	
MGESLFKGPRDYNPISSSICHLTNESDGHTTSLYGIGFGPFIITNKHLFRRNNGTLVVQSLHGVFKVKDETTLQQHLVDGRDMIIIRMPKDFPPFPQKLKFREPQREERICLVTTNFQTKSMSSMVSDTSCTFPSGDGIFWKHWIQTKDGQCGSPLVSTRDGFIVGIHSASNFTNTNNYFTSVPKNFMELLTNQEAQQWVSGWRLNADSVLWGGHKVFMVKPEEPFQPVKEATQL [T70E]	0.0576		0.0413	0.0824	0.078		0.054			0.0501	0.0529	0.0614	0.047	0.0405			0.0441		0.0497
MGESLFKGPRDYNPISSSICHLTNESDGHTTSLYGIGFGPFIITNKHLFRRNNGTLVVQSLHGVFKVKDTETLQQHLVDGRDMIIIRMPKDFPPFPQKLKFREPQREERICLVTTNFQTKSMSSMVSDTSCTFPSGDGIFWKHWIQTKDGQCGSPLVSTRDGFIVGIHSASNFTNTNNYFTSVPKNFMELLTNQEAQQWVSGWRLNADSVLWGGHKVFMVKPEEPFQPVKEATQL [T71E]	0.0453	0.0605	0.0584	0.0547		0.0601	0.0543		0.0671	0.0623	0.0414	0.0499	0.0721	0.103			0.0575	0.072	0.0576
MGESLFKGPRDYNPISSSICHLTNESDGHTTSLYGIGFGPFIITNKHLFRRNNGTLVVQSLHGVFKVKDTTTIQQHLVDGRDMIIIRMPKDFPPFPQKLKFREPQREERICLVTTNFQTKSMSSMVSDTSCTFPSGDGIFWKHWIQTKDGQCGSPLVSTRDGFIVGIHSASNFTNTNNYFTSVPKNFMELLTNQEAQQWVSGWRLNADSVLWGGHKVFMVKPEEPFQPVKEATQL [L73I]	0.0567	0.0605		0.0631	0.0642		0.055	0.0516	0.0687	0.0593	0.0587	0.0685	0.0609	0.0612	0.0707	0.0513		0.0484	0.0553
MGESLFKGPRDYNPISSSICHLTNESDGHTTSLYGIGFGPFIITNKHLFRRNNGTLVVQSLHGVFKVKDTTTLQKHLVDGRDMIIIRMPKDFPPFPQKLKFREPQREERICLVTTNFQTKSMSSMVSDTSCTFPSGDGIFWKHWIQTKDGQCGSPLVSTRDGFIVGIHSASNFTNTNNYFTSVPKNFMELLTNQEAQQWVSGWRLNADSVLWGGHKVFMVKPEEPFQPVKEATQL [Q75K]	0.0663	0.0743		0.061	0.0602	0.0593	0.0601	0.0641		0.054	0.0637	0.0591		0.0591		0.0461	0.0674		0.0621
MGESLFKGPRDYNPISSSICHLTNESDGHTTSLYGIGFGPFIITNKHLFRRNNGTLVVQSLHGVFKVKDTTTLQRHLVDGRDMIIIRMPKDFPPFPQKLKFREPQREERICLVTTNFQTKSMSSMVSDTSCTFPSGDGIFWKHWIQTKDGQCGSPLVSTRDGFIVGIHSASNFTNTNNYFTSVPKNFMELLTNQEAQQWVSGWRLNADSVLWGGHKVFMVKPEEPFQPVKEATQL [Q75R]	0.0457	0.0465	0.0548	0.0693	0.0597		0.0582	0.0287	0.0714	0.0632	0.0338	0.0593		0.0608		0.0761	0.057		0.053
MGESLFKGPRDYNPISSSICHLTNESDGHTTSLYGIGFGPFIITNKHLFRRNNGTLVVQSLHGVFKVKDTTTLQQRLVDGRDMIIIRMPKDFPPFPQKLKFREPQREERICLVTTNFQTKSMSSMVSDTSCTFPSGDGIFWKHWIQTKDGQCGSPLVSTRDGFIVGIHSASNFTNTNNYFTSVPKNFMELLTNQEAQQWVSGWRLNADSVLWGGHKVFMVKPEEPFQPVKEATQL [H76R]	0.0617	0.0682		0.0936	0.0697		0.052	0.0528	0.0611	0.042	0.0575	0.0573	0.0475	0.0586			0.0444	0.0718	0.0623
MGESLFKGPRDYNPISSSICHLTNESDGHTTSLYGIGFGPFIITNKHLFRRNNGTLVVQSLHGVFKVKDTTTLQQHHVDGRDMIIIRMPKDFPPFPQKLKFREPQREERICLVTTNFQTKSMSSMVSDTSCTFPSGDGIFWKHWIQTKDGQCGSPLVSTRDGFIVGIHSASNFTNTNNYFTSVPKNFMELLTNQEAQQWVSGWRLNADSVLWGGHKVFMVKPEEPFQPVKEATQL [L77H]	0.0578	0.0663	0.0459	0.0616	0.0655	0.0462	0.0565			0.0595	0.059	0.0482	0.0601	0.0506	0.0419	0.0611			0.057
